From publication PMC4336329 (PLoS ONE, 2015) come the findings set out here.

Hit rate of the full screen: of about 310,000 compounds, about 2,200 (0.71%) showed an effect of 50% or more. The effect is printed as a negative number. Some of the results follow.

human ether-à-go-go-related gene (hERG) potassium channel, sequence (Q12809 whole entry, looked up): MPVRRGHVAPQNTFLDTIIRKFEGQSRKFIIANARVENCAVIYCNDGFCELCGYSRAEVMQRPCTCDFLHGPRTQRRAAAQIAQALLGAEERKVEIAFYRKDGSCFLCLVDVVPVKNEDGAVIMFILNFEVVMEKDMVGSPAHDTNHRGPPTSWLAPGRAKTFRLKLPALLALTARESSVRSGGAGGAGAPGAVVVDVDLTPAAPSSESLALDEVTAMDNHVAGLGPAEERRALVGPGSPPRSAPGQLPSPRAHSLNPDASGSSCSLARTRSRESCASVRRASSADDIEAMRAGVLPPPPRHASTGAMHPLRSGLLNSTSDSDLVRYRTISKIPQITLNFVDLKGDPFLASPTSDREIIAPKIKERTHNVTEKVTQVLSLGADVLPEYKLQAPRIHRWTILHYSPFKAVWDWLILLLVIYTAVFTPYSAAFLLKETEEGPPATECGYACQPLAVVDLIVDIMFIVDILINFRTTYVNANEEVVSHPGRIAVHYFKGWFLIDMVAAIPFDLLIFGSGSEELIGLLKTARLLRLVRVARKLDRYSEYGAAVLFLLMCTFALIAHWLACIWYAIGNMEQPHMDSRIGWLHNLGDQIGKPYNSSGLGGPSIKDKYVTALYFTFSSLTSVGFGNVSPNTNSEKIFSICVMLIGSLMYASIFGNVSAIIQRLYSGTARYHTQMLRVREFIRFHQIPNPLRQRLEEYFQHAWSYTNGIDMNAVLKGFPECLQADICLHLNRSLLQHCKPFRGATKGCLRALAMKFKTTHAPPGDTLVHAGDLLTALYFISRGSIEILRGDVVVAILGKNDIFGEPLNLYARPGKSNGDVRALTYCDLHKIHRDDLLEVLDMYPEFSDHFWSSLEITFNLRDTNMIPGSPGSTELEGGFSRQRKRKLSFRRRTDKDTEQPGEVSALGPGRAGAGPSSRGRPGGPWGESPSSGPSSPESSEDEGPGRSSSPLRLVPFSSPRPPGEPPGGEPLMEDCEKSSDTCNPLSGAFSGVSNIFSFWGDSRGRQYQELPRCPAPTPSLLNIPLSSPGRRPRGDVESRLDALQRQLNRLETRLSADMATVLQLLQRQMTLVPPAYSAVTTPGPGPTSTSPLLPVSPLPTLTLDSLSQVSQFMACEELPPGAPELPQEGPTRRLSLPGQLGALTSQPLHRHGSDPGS

The test concerns the target human ether-à-go-go-related gene (hERG) potassium channel (human, UniProt Q12809). Kind of test: primary screen, population patch clamp on CHO cells stably expressing hERG.
Regarding `Cc1ccc(S(=O)(=O)NCCSc2nnnn2-c2ccc(C(N)=O)cc2)cc1`, the “hERG current change (%, negative = inhibition) at 1uM” value stood at 7.74%.

Regarding `Cc1ccc(CC(=O)NC2CCN(Cc3ccccc3)CC2)cc1`, the “hERG current change (%, negative = inhibition) at 1uM” value is reported as 7.9%.

`CNCCCN1c2ccccc2CCc2ccccc21.Cl`: the “hERG current change (%, negative = inhibition) at 1uM” value is given as 10.4%.

`CCOC(=O)N1CCN(c2ccc([N+](=O)[O-])cc2)CC1`: the “hERG current change (%, negative = inhibition) at 1uM” value is reported as -30.9%.

Consider `O=C(O)c1cc([N+](=O)[O-])c(NCc2cccnc2)c([N+](=O)[O-])c1`, for which the “hERG current change (%, negative = inhibition) at 1uM” value was 14%.

Take `Cc1cc2cccc(C)c2nc1SCC(=O)NC1CCCCC1`: the “hERG current change (%, negative = inhibition) at 1uM” value was found to be 9.02%.

Consider `Cc1ccc(S(=O)(=O)N2CCC(C(N)=O)CC2)cc1[N+](=O)[O-]`, for which the “hERG current change (%, negative = inhibition) at 1uM” value stood at 9.67%.

Take `O=C(NC1CC(=O)N(c2ccccc2)C1)N1CCN(C(=O)c2ccco2)CC1` (centres unmarked): the “hERG current change (%, negative = inhibition) at 1uM” value is reported as 8.15%.

`FC(F)(F)c1cccc(NC(=S)N2CCN(c3ccccc3)CC2)c1`: the “hERG current change (%, negative = inhibition) at 1uM” value amounted to 8.68%.

On to `CCOC(=O)CNC(=O)CSc1nc(-c2cccc(C)c2)ns1`, for which the “hERG current change (%, negative = inhibition) at 1uM” value is on record as 7.97%.

`O=C(NCc1ccccc1)Oc1cccc(Cl)c1`: the “hERG current change (%, negative = inhibition) at 1uM” value is on record as 16%.

For `CCCCCNCC(=O)Nc1cc(C(F)(F)F)ccc1OCCOC`, the “hERG current change (%, negative = inhibition) at 1uM” value was -5.74%.

As to `CC(=O)c1cc2c(cc1NC(=O)CSc1nnc(C)s1)OCO2`, the “hERG current change (%, negative = inhibition) at 1uM” value was determined as 4.66%.

As for `O=C(NCCCNC(=O)c1ccc(Cl)cc1Cl)c1cnccn1`, the “hERG current change (%, negative = inhibition) at 1uM” value was determined as 13.7%.

Turning to `Cc1ccc(S(=O)(=O)Nc2csc(C)c2C(=O)O)cc1`, the “hERG current change (%, negative = inhibition) at 1uM” value is 8.22%.

Consider `CCOC(=O)NN1C(=O)c2ccccc2NC1c1ccccc1` (centres unmarked), for which the “hERG current change (%, negative = inhibition) at 1uM” value was -1.25%.

For the molecule `O=C(Cn1nnc(-c2ccccc2F)n1)Nc1ccc2c(c1)OCO2`, the “hERG current change (%, negative = inhibition) at 1uM” value is recorded as 11.4%.

Take `COc1ccccc1COn1c(=O)c(-c2ccco2)[n+]([O-])c2ccccc21`: the “hERG current change (%, negative = inhibition) at 1uM” value stood at 6.12%.

Consider `Fc1cccc(F)c1-n1c(CN2CCCC2)csc1=S`, for which the “hERG current change (%, negative = inhibition) at 1uM” value came out at 3.31%.

As for `S=C(NCCCc1ccccc1)NC1CCCCC1`, the “hERG current change (%, negative = inhibition) at 1uM” value amounted to 11.7%.

In the case of `Cc1nn(-c2ccccc2)c2sc(C(=O)N(CC(=O)NC(C)(C)C)Cc3ccco3)cc12`, the “hERG current change (%, negative = inhibition) at 1uM” value is -1.39%.

For `CC(CCn1cccn1)NC(=O)c1cc(COc2ccc(F)cc2F)on1` (centres unmarked), the “hERG current change (%, negative = inhibition) at 1uM” value is on record as -1.04%.

As for `COC(=O)C1=C(c2ccc(C(C)=O)cc2)C[C@@H]2CC[C@H]1N2C(=O)N1CCC(O)CC1`, the “hERG current change (%, negative = inhibition) at 1uM” value was determined as 15.6%.

Regarding `O=P(OC1CCS(=O)(=O)C1)(c1ccccc1)c1ccccc1` (centres unmarked), the “hERG current change (%, negative = inhibition) at 1uM” value is on record as 12.3%.

On to `CC(=O)c1ccc(N2CCN(S(=O)(=O)c3cccc4nonc34)CC2)cc1`, for which the “hERG current change (%, negative = inhibition) at 1uM” value is reported as 5.71%.

Turning to `CNc1nc(-c2ccccc2)[n+](-c2ccc(C)cc2)s1.[Br-]`, the “hERG current change (%, negative = inhibition) at 1uM” value is reported as -3.4%.

As for `CC(C)(C)c1ccc(OCCCNCc2ccccc2)cc1.O=C(O)C(=O)O`, the “hERG current change (%, negative = inhibition) at 1uM” value worked out at 8.06%.

For the molecule `CC1CCCC(C)N1C(=O)CSc1nc2ncnc(N)c2[nH]1` (centres unmarked), the “hERG current change (%, negative = inhibition) at 1uM” value was -6.34%.

As for `COc1ccc(S(=O)(=O)Nc2ccccc2C(N)=O)cc1OC`, the “hERG current change (%, negative = inhibition) at 1uM” value is listed as 7.16%.

Turning to `CCCCn1c(N)c(N(CCC(C)C)C(=O)COC(=O)c2sccc2C)c(=O)[nH]c1=O`, the “hERG current change (%, negative = inhibition) at 1uM” value turned out to be 4.72%.

`Cc1cc(C)nc(/N=C(\N)c2c(O)[nH]c(=O)[nH]c2=O)n1`: the “hERG current change (%, negative = inhibition) at 1uM” value is recorded as 6.07%.

Regarding `CC(=O)C1=C(O)C(=O)N(c2ccc(S(=O)(=O)Nc3nccs3)cc2)C1c1ccc([N+](=O)[O-])cc1` (centres unmarked), the “hERG current change (%, negative = inhibition) at 1uM” value is on record as 16.8%.

`COc1cc(C(=O)OC2CCOC2=O)c([N+](=O)[O-])cc1OC` (centres unmarked): the “hERG current change (%, negative = inhibition) at 1uM” value was 14.8%.

Regarding `CCCCn1c(N)c(N(CCC(C)C)C(=O)CN2C(=O)C3CCCCC3C2=O)c(=O)[nH]c1=O` (centres unmarked), the “hERG current change (%, negative = inhibition) at 1uM” value is given as 8.37%.

Turning to `COC(=O)CCC(=O)Nc1cccc(Br)c1`, the “hERG current change (%, negative = inhibition) at 1uM” value is given as 7.99%.

As to `Cc1cccc(C)c1Nc1c(-c2ccccn2)nc2ccccn12`, the “hERG current change (%, negative = inhibition) at 1uM” value is recorded as -0.742%.

Regarding `CC1=C(C(=O)OCc2ccccc2)C(c2ccccn2)c2c(n(C)c(=O)n(C)c2=O)N1` (centres unmarked), the “hERG current change (%, negative = inhibition) at 1uM” value amounted to 0.653%.

As to `Cc1ccc2nc(N(CCCN(C)C)C(=O)c3ccc(Br)s3)sc2c1.Cl`, the “hERG current change (%, negative = inhibition) at 1uM” value was -6%.

Take `COC(=O)c1c(C)[nH]c(C(=O)CSc2nnnn2-c2ccccc2)c1C`: the “hERG current change (%, negative = inhibition) at 1uM” value is reported as 10.9%.

Consider `O=C(Cc1ccccc1)Nc1c(C(=O)N2CCOCC2)cnn1-c1ccccc1`, for which the “hERG current change (%, negative = inhibition) at 1uM” value was 20.8%.

For `COCCn1c(SCC(=O)Nc2ccccc2F)nc2c([nH]c3ccccc32)c1=O`, the “hERG current change (%, negative = inhibition) at 1uM” value amounted to 7.71%.

For `CC(NCc1cccs1)C(=O)NC1CCCCC1.O=C(O)C(=O)O` (centres unmarked), the “hERG current change (%, negative = inhibition) at 1uM” value amounted to 13.4%.

Consider `Cc1ccc(-c2csc(-c3c[nH]c4ccccc34)n2)c(C)c1`, for which the “hERG current change (%, negative = inhibition) at 1uM” value is on record as 7.51%.

With `CCOC(=O)C1CCN(c2ncnc3c(C)csc23)CC1`, the “hERG current change (%, negative = inhibition) at 1uM” value was determined as 12.7%.
